The text below walks through data of paper PMC13208732 (2026).

The target of this experiment is T1, recombinant human placental growth factor 2 (PlGF-2) (human, UniProt P49763-3 19-170).
T1 chain: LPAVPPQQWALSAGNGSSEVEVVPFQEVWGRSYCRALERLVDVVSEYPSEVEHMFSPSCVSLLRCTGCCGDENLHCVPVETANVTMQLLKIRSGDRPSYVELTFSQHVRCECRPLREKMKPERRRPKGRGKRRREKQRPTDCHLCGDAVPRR
Nature of the experiment: ELISA; competition with biotinylated NRP1, no heparin. A general note: An ELISA detects its analyte on a solid surface through an enzyme-linked reagent.

For orientation: IC50 means the point on the concentration scale where inhibition reaches its midpoint.

B1: NRP1 receptor domains α1α2β1β2 fused to a C-terminal Fc, biotinylated (Fc fusion)
chain: not shown
modifications: biotin (EZ-Link Sulfo-NHS-Biotinylation Kit)
Turning to B1, the IC50 stood at 22.2 nM.
